Data as given in PubChem BioAssay (Tox21).
Where “and” joins values, the source holds several entries; their conditions need not be identical. Equal values may be shown once. The inconclusive results got no clear call from the source; some entries with a clear call stand among them for comparison. A potency beside an inconclusive call is a rough fit, not a confirmed value. Calls of active or inactive are those of the source. Unless noted, the call rests on the fitted dose curve.

Legend:
[1] = qHTS assay for small molecule agonists of the p53 signaling pathway (AID 651631); conditions: HCT-116 p53RE-bla reporter, beta-lactamase FRET ratio, 16 h; activation: at 73.3 µM (top of the series) unless noted; further: nearly all actives have a fitted effect of over 15% in size; on activation: on the % scale 0 is the no-effect control and ±100 the full control effect
Outline: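 Agonist mode screen using a stably integrated beta-lactamase gene under p53 response elements in HCT-116 cells. Compound exposure lasts 16 h at 37 °C; fluorescence intensity is measured following 2 h FRET substrate loading.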

[2] = qHTS assay for small molecules that induce genotoxicity in human embryonic kidney cells expressing luciferase-tagged ATAD5 (AID 651632; active means well fitted curve in the direction sought with a large enough effect in the repeat runs; inconclusive means weak or mixed curves; inactive means no such curve, though single readings can be large; an effect the other way counts as inactive or inconclusive; further: nearly all actives have a fitted effect of over 15% in size; on activation: on the % scale 0 is the no-effect control and ±100 the full control effect)
Outline: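 Luminescence read-out: after 16 hr compound exposure at 37C, ATAD5-luciferase HEK293T cells received Amplite, 30 min RT, then CCD imaging. A rise in signal marks genotoxic stress.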

[3] = qHTS assay for small molecules that induce genotoxicity in human embryonic kidney cells expressing luciferase-tagged ATAD5 - cell viability (AID 651634); further: nearly all actives have a fitted effect of over 25% in size
Outline: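 HEK293T ATAD5-luc cells, 2,000/well; compound 15.5 hr, 37C/5% CO2; CellTiter-Fluor 30 min, 37C; fluorescence read.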

[4] = qHTS assay for small molecule disruptors of the mitochondrial membrane potential (AID 720635; active means well fitted curve in the direction sought with a large enough effect in the repeat runs; inconclusive means weak or mixed curves; inactive means no such curve, though single readings can be large; an effect the other way counts as inactive or inconclusive; on ratio activity, negative = MMP loss: on the % scale 0 is the no-effect control and ±100 the full control effect); conditions: HepG2 mitochondrial membrane potential, Mito-MPS dye ratio; ratio activity, negative = MMP loss: at 83.2 µM (top of the series) unless noted
Outline: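 HepG2 cells (2,000/well) attached overnight at 37C, then took compound for 1 hr at 37C, 5% CO2. Mito-MPS dye was added for 30 min; fluorescence was read at 490/535 nm (monomers) and 540/590 nm (aggregates).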

[5] = target: Glucocorticoid receptor (Homo sapiens) (UniProt P04150); assay: qHTS assay to identify small molecule antagonists of the glucocorticoid receptor (GR) signaling pathway (AID 720692; active means well fitted inhibition curve with a large enough effect in the signal ratio in the repeat runs, not every such curve was filed as active; inconclusive means weak or mixed curves, or effect the other way; inactive means no such curve, though single readings can be large or run the other way; the % refers to the signal ratio; on activity change, negative = inhibition: on the % scale 0 is the no-effect control and ±100 the full control effect); conditions: GR-bla HeLa, beta-lactamase FRET ratio, dexamethasone-stimulated, 18 h; activity change, negative = inhibition: at 58.5 µM (top of the series) unless noted
UniProt P04150, sequence (P04150 whole entry, looked up): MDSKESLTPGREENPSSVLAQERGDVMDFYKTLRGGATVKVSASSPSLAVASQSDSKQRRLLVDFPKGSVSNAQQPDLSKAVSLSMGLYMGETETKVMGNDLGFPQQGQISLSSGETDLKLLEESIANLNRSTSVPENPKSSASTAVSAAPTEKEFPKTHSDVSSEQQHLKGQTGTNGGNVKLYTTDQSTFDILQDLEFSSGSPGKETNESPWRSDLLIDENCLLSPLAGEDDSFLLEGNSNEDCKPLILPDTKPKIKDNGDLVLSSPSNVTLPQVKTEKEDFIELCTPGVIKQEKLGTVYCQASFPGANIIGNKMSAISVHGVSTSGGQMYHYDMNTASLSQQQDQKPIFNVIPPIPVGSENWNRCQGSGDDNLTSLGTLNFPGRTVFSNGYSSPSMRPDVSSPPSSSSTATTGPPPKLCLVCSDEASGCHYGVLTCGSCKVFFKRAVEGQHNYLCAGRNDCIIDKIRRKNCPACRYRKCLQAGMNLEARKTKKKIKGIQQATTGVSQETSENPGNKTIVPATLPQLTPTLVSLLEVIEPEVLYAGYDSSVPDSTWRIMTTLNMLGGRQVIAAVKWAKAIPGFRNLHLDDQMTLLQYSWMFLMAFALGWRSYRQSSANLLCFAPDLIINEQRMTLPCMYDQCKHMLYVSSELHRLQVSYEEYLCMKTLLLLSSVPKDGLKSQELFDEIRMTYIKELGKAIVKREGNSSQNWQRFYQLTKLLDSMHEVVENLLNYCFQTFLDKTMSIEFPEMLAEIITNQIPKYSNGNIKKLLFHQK
Outline: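 Read-out: beta-lactamase FRET substrate fluorescence, 2 h at room temperature, in HeLa cells stably carrying a GRE-driven bla reporter. Compounds were co-incubated with 5 nM dexamethasone agonist (final) for 18 h at 37 C.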

[6] = qHTS assay for small molecule agonists of the p53 signaling pathway - cell viability (AID 651633); further: nearly all actives have a fitted effect of over 30% in size
Outline: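 p53RE-bla cells, seeded at 4,000 per well and rested 5 h at 37 C/5% CO2, received compounds in DMSO for 16 h at 37 C. CellTiter-Glo was then added, and luminescence was read after 30 min at room temperature to gauge cytotoxicity.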

[7] = qHTS assay to identify small molecule antagonists of the glucocorticoid receptor (GR) signaling pathway - cell viability counter screen (AID 720693; active means well fitted curve in the direction sought with a large enough effect in the repeat runs; inconclusive means weak or mixed curves; inactive means no such curve, though single readings can be large; an effect the other way counts as inactive or inconclusive; further: nearly all actives have a fitted effect of over 55% in size); conditions: GR-bla HeLa viability, CellTiter-Glo luminescence, 18 h, with 5 nM dexamethasone present; viability change, negative = cytotoxic: at 58.5 µM (top of the series)
[8] = qHTS assay for small molecule disruptors of the mitochondrial membrane potential - cell viability (AID 720634); further: nearly all actives have a fitted effect of over 20% in size
Outline: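 Luminescence from CellTiter-Glo (ATP content) gave viability in HepG2 cells, read in the same wells as the MMP dye assay after 1 hr compound exposure at 37 C.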

[9] = target: Glucocorticoid receptor (Homo sapiens) (UniProt P04150); assay: qHTS assay to identify small molecule agonists of the glucocorticoid receptor (GR) signaling pathway (AID 720691; active means well fitted activation curve with a large enough effect in the signal ratio in the repeat runs, not every such curve was filed as active; inconclusive means weak or mixed curves, or effect the other way; inactive means no such curve, though single readings can be large or run the other way; the % refers to the signal ratio); conditions: GR-bla HeLa, beta-lactamase reporter ratio, 18 h; activation: at 62.4 µM (top of the series) unless noted
Outline: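 HeLa GR-bla reporter line; cells pre-incubated 4 h, compound in DMSO 18 h at 37 C; LiveBLAzer B/G FRET substrate 2 h RT; fluorescence intensity read-out.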
Potency means the concentration at half of the fitted maximal effect; tags describe the fitted curve by direction and shape or compound fluorescence and quenching.

Oc1ccc(OCc2ccccc2)cc1
Potency [1]: active: 9.02 µM and inconclusive: 18.9 µM [activator]
Potency [2]: inconclusive: 23.8 µM [activator, full curve, poor fit]
Potency [3]: inconclusive: 47.5 µM [falling, partial curve]
Potency [4]: active: 10.1 µM and active: 23.8 µM
Potency [5]: inconclusive: 5.38 µM [activator, full curve, poor fit]
activity change, negative = inhibition [5]: inconclusive: 16.6% [at 27 µM]

CCCCCCCCc1ccc(S(=O)(=O)O)cc1
Potency [1]: inconclusive: 30.4 µM [cytotoxic, partial curve]
Potency [6]: inconclusive: 68 µM [cytotoxic, single point]

CCCC(=O)OCCc1ccccc1
Potency [1]: inactive
Potency [2]: inactive
Potency [3]: inconclusive: 68.6 µM [falling, partial curve, poor fit]
Potency [4]: inactive
activity change, negative = inhibition [5]: inconclusive: 11.2%

O=C(/C=C/c1ccc([N+](=O)[O-])cc1)c1ccccc1
Potency [1]: inconclusive: 68.7 µM [single point]
Potency [2]: inconclusive: 61.3 µM [activator, partial curve, poor fit]
Potency [4]: active: 30.7 µM
activity change, negative = inhibition [5]: inconclusive: 28.2%
Potency [7]: inactive

CCCC(O)C(CC)CO (centres undefined)
Potency [1]: inactive
Potency [2]: inactive
ratio activity, negative = MMP loss [4]: inconclusive: 14.3%
Potency [7]: inactive

CC(C(=O)O)c1ccc2c(c1)Cc1cccnc1O2 (centres undefined)
Potency [1]: inconclusive: 26.6 µM [rising, partial curve, poor fit]
Potency [6]: inactive

CSSc1ccoc1C
Potency [1]: inactive
Potency [2]: inactive
activity change, negative = inhibition [5]: inconclusive: 5.56%

C[C@]12CC[C@@H]3c4ccc(O)cc4CC[C@H]3[C@@H]1CC[C@H]2O
Potency [1]: active: 15.6 µM and active: 27.3 µM
Potency [6]: inactive
Potency [8]: inconclusive: 31.2 µM [cytotoxic] and inconclusive: 30.6 µM [cytotoxic, partial curve, poor fit]
Potency [4]: active: 27.8 µM and active: 27.3 µM
Potency [9]: inconclusive: 0.55 µM [inhibitor, full curve]
Potency [5]: active: 6.27 µM
Potency [7]: inconclusive: 22.2 µM [cytotoxic, partial curve] and active: 17.4 µM

SCCc1cnccn1
Potency [1]: active: 61.1 µM
Potency [2]: inconclusive: 68.6 µM [activator]
Potency [4]: inactive
Potency [5]: inconclusive: 30.9 µM [inhibitor, partial curve]

O=C1CCCc2c1cc1ccc3cccc4ccc2c1c34
Potency [1]: active: 55.1 µM
Potency [2]: inconclusive: 69.4 µM [activator, partial curve, poor fit]
Potency [8]: inconclusive: 31 µM [cytotoxic, partial curve, poor fit]
Potency [4]: active: 8.74 µM
Potency [9]: active: 22.2 µM
Potency [5]: inconclusive: 17.6 µM [activator]

Cc1ccc(S(=O)(=O)NC2CCCCC2)cc1
Potency [1]: inconclusive: 60.7 µM [cytotoxic, partial curve]
Potency [6]: inconclusive: 60.7 µM [cytotoxic, single point]
Potency [3]: inconclusive: 68.1 µM [falling, single point]
Potency [8]: inconclusive: 34.1 µM [cytotoxic, partial curve]
Potency [4]: active: 21.5 µM

CC(=O)OC[C@H]1O[C@@H](n2ncc(=O)[nH]c2=O)[C@H](OC(C)=O)[C@@H]1OC(C)=O
Potency [1]: active: 1.88 µM
Potency [6]: inconclusive: 5.31 µM [cytotoxic, partial curve, poor fit]
activation [9]: inconclusive: 7.94% [phenotype inactive]
activity change, negative = inhibition [5]: inconclusive: 7.76%

CCCCCCCC(=O)Oc1c(Br)cc(C#N)cc1Br
Potency [1]: inconclusive: 27.2 µM [falling, partial curve]
Potency [3]: inconclusive: 38.4 µM [falling, partial curve]
Potency [8]: inconclusive: 48.4 µM [cytotoxic, partial curve, poor fit]
Potency [4]: active: 12.1 µM
Potency [5]: inconclusive: 61.4 µM [inhibitor, single point]

Oc1ccc(Cc2ccccc2O)cc1
Potency [1]: inconclusive: 69.4 µM [falling, single point]
Potency [3]: inconclusive: 43.8 µM [falling, partial curve, poor fit]
Potency [8]: inconclusive: 39 µM [cytotoxic, partial curve, poor fit]
Potency [4]: active: 11 µM and active: 27.3 µM
Potency [5]: inactive

O[C@@H](CNC[C@H](O)[C@H]1CCc2cc(F)ccc2O1)[C@@H]1CCc2cc(F)ccc2O1
Potency [1]: inconclusive: 29.8 µM [falling, single point]
Potency [6]: inconclusive: 23.7 µM [cytotoxic, partial curve]
Potency [4]: inconclusive: 5.31 µM [activator, full curve]
Potency [9]: inconclusive: 30.1 µM [cytotoxic, single point]
Potency [5]: active: 23.9 µM
Potency [7]: inconclusive: 26.8 µM [cytotoxic, single point]
